Experimental data taken from the supplement of paper PMC10037445.
Over roughly 2,900 compounds, “IRF Lucia reporter activity, fold change vs agonist alone” has its median near 0.9; the highest 2% begin near 2.8. The list shows a part of the results.

Columns and labels:
RAW-Dual [1] = assay: IRF Lucia reporter activity, fold change vs agonist alone; cytotoxicity flag (confluency mask): not cytotoxic; higher = enhanced IRF activity
Outline: (§1)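 Supernatant from RAW-Dual macrophages was read after 20 hours for IRF by QuantiLuc luminescence and for NF-κB by QuantiBlue absorbance at 620 nm. The cells (50,000 cells/well in DMEM, 384-well plates, 37 °C, 5% CO2) had received 50 nL of library stock by pin tool and, 1 h later, a PRR agonist. Reporter activity is expressed relative to agonist-alone wells as fold change, and wells were flagged cytotoxic if IncuCyte confluency was under 70% of agonist controls in both mask sets.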

RAW-Dual [2] = assay: IRF Lucia reporter activity, fold change vs agonist alone; higher = enhanced IRF activity; settings: agonist: MPLA (TLR4) […]
Outline: as §1

RAW-Dual [3] = assay: IRF Lucia reporter activity, fold change vs agonist alone; cytotoxicity flag (confluency mask): cytotoxic (confluency <70% of control); higher = enhanced IRF activity
Outline: as §1

[4] = agonist: 3'3'-cGAMP (STING) 10 ug/mL
[5] = library stock concentration (final ~1000-fold dilution): 10 mM, cytotoxicity flag (confluency mask): not cytotoxic

C=CC(=O)N1CC/C(=C\c2ccc(F)c([N+](=O)[O-])c2)C(=O)/C(=C/c2ccc(F)c([N+](=O)[O-])c2)C1 (library stock concentration (final ~1000-fold dilution): 10 mM)
IRF Lucia reporter activity (RAW-Dual [1]; [4]): 0.00954
IRF Lucia reporter activity (RAW-Dual [1]; agonist: LPS (TLR4) 0.1 ug/mL): 0.0106

O=C(Nc1c(Cl)cncc1Cl)c1ccc(OC(F)F)c(OCC2CC2)c1
IRF Lucia reporter activity (RAW-Dual [2]; [5]): 0.965

O=C(Nc1c(Cl)cncc1Cl)c1ccc(OC(F)F)c(OCC2CC2)c1 (library stock concentration (final ~1000-fold dilution): 10 mM)
IRF Lucia reporter activity (RAW-Dual [1]; [4]): 0.881
IRF Lucia reporter activity (RAW-Dual [1]; agonist: LPS (TLR4) 0.1 ug/mL): 0.885

CCOC(=O)OC(C)OC1=C(C(=O)Nc2ccccn2)N(C)S(=O)(=O)c2ccccc21 (stereo not drawn) (library stock concentration (final ~1000-fold dilution): 10 mM)
IRF Lucia reporter activity (RAW-Dual [1]; [4]): 1.13
IRF Lucia reporter activity (RAW-Dual [1]; agonist: LPS (TLR4) 0.1 ug/mL): 1.32

CCOC(=O)OC(C)OC1=C(C(=O)Nc2ccccn2)N(C)S(=O)(=O)c2ccccc21 (stereo not drawn)
IRF Lucia reporter activity (RAW-Dual [2]; [5]): 1.12

Cc1cccc(-c2[nH]c(CNc3ccccc3F)nc2-c2ccc3ncnn3c2)n1 (library stock concentration (final ~1000-fold dilution): 10 mM)
IRF Lucia reporter activity (RAW-Dual [1]; [4]): 0.453
IRF Lucia reporter activity (RAW-Dual [1]; agonist: LPS (TLR4) 0.1 ug/mL): 0.83

Cc1cccc(-c2[nH]c(CNc3ccccc3F)nc2-c2ccc3ncnn3c2)n1
IRF Lucia reporter activity (RAW-Dual [2]; [5]): 0.816

CCCS(=O)(=O)Nc1ccc(F)c(C(=O)c2c[nH]c3ncc(-c4ccc(Cl)cc4)cc23)c1F
IRF Lucia reporter activity (RAW-Dual [2]; [5]): 0.473

CCCS(=O)(=O)Nc1ccc(F)c(C(=O)c2c[nH]c3ncc(-c4ccc(Cl)cc4)cc23)c1F (library stock concentration (final ~1000-fold dilution): 10 mM)
IRF Lucia reporter activity (RAW-Dual [1]; [4]): 0.195
IRF Lucia reporter activity (RAW-Dual [1]; agonist: LPS (TLR4) 0.1 ug/mL): 0.356

C[C@@H]1O[C@@H](O[C@H]2[C@H](Oc3cc(O)c(C(=O)CCc4ccc(O)cc4)c(O)c3)O[C@H](CO)[C@@H](O)[C@@H]2O)[C@H](O)[C@H](O)[C@H]1O (library stock concentration (final ~1000-fold dilution): 10 mM)
IRF Lucia reporter activity (RAW-Dual [1]; [4]): 1.06
IRF Lucia reporter activity (RAW-Dual [1]; agonist: LPS (TLR4) 0.1 ug/mL): 0.758

CCCCNC(=O)NS(=O)(=O)c1ccc(C)cc1
IRF Lucia reporter activity (RAW-Dual [2]; [5]): 1.05

CCCCNC(=O)NS(=O)(=O)c1ccc(C)cc1 (library stock concentration (final ~1000-fold dilution): 10 mM)
IRF Lucia reporter activity (RAW-Dual [1]; [4]): 0.997
IRF Lucia reporter activity (RAW-Dual [1]; agonist: LPS (TLR4) 0.1 ug/mL): 1.02

CCCC(C(=O)OCCN(CC)CC)(c1ccccc1)c1ccccc1.Cl (library stock concentration (final ~1000-fold dilution): 10 mM)
IRF Lucia reporter activity (RAW-Dual [3]; [4]): 0.573
IRF Lucia reporter activity (RAW-Dual [3]; agonist: LPS (TLR4) 0.1 ug/mL): 1.64

CCCC(C(=O)OCCN(CC)CC)(c1ccccc1)c1ccccc1.Cl
IRF Lucia reporter activity (RAW-Dual [2]; library stock concentration (final ~1000-fold dilution): 10 mM, cytotoxicity flag (confluency mask): cytotoxic (confluency <70% of control)): 1.46

O=C(O)c1cc(-c2ccc(F)cc2F)ccc1O
IRF Lucia reporter activity (RAW-Dual [2]; [5]): 1.11

O=C(O)c1cc(-c2ccc(F)cc2F)ccc1O (library stock concentration (final ~1000-fold dilution): 10 mM)
IRF Lucia reporter activity (RAW-Dual [1]; [4]): 1.02
IRF Lucia reporter activity (RAW-Dual [1]; agonist: LPS (TLR4) 0.1 ug/mL): 1.28

COC(=O)NC(C(=O)N1CCCC1C(=O)Nc1ccc(C2CCC(c3ccc(NC(=O)C4CCCN4C(=O)C(NC(=O)OC)C(C)C)cc3)N2c2ccc(C(C)(C)C)cc2)cc1)C(C)C (stereo not drawn)
IRF Lucia reporter activity (RAW-Dual [2]; [5]): 0.973

COC(=O)NC(C(=O)N1CCCC1C(=O)Nc1ccc(C2CCC(c3ccc(NC(=O)C4CCCN4C(=O)C(NC(=O)OC)C(C)C)cc3)N2c2ccc(C(C)(C)C)cc2)cc1)C(C)C (stereo not drawn) (library stock concentration (final ~1000-fold dilution): 10 mM)
IRF Lucia reporter activity (RAW-Dual [1]; [4]): 0.995
IRF Lucia reporter activity (RAW-Dual [1]; agonist: LPS (TLR4) 0.1 ug/mL): 1.21

CC1CCC(C(=O)N(c2cc(C#CC(C)(C)C)sc2C(=O)O)C2CCC(O)CC2)CC1 (stereo not drawn)
IRF Lucia reporter activity (RAW-Dual [2]; [5]): 0.669

CC1CCC(C(=O)N(c2cc(C#CC(C)(C)C)sc2C(=O)O)C2CCC(O)CC2)CC1 (stereo not drawn) (library stock concentration (final ~1000-fold dilution): 10 mM)
IRF Lucia reporter activity (RAW-Dual [1]; [4]): 1.05
IRF Lucia reporter activity (RAW-Dual [1]; agonist: LPS (TLR4) 0.1 ug/mL): 0.708

CN(C)C1CCN(C(=O)c2ccc(NC(=O)Nc3ccc(-c4nc(N5CCOCC5)nc(N5CCOCC5)n4)cc3)cc2)CC1 (library stock concentration (final ~1000-fold dilution): 2 mM)
IRF Lucia reporter activity (RAW-Dual [1]; [4]): 0.426
IRF Lucia reporter activity (RAW-Dual [1]; agonist: LPS (TLR4) 0.1 ug/mL): 1.05

CN(C)C1CCN(C(=O)c2ccc(NC(=O)Nc3ccc(-c4nc(N5CCOCC5)nc(N5CCOCC5)n4)cc3)cc2)CC1
IRF Lucia reporter activity (RAW-Dual [2]; library stock concentration (final ~1000-fold dilution): 2 mM, cytotoxicity flag (confluency mask): not cytotoxic): 1.52

Cc1ccc(Nc2cc(NC3CCCCC3N)nnc2C(N)=O)nc1C (stereo not drawn) (library stock concentration (final ~1000-fold dilution): 10 mM)
IRF Lucia reporter activity (RAW-Dual [1]; [4]): 0.0902
IRF Lucia reporter activity (RAW-Dual [1]; agonist: LPS (TLR4) 0.1 ug/mL): 0.547

Cc1ccc(Nc2cc(NC3CCCCC3N)nnc2C(N)=O)nc1C (stereo not drawn)
IRF Lucia reporter activity (RAW-Dual [2]; [5]): 0.641

CCOC(=O)c1ccc(N)cc1.Cl (library stock concentration (final ~1000-fold dilution): 10 mM)
IRF Lucia reporter activity (RAW-Dual [1]; [4]): 0.942
IRF Lucia reporter activity (RAW-Dual [1]; agonist: LPS (TLR4) 0.1 ug/mL): 1.15

CCOC(=O)c1ccc(N)cc1.Cl
IRF Lucia reporter activity (RAW-Dual [2]; [5]): 1.01

CC(C)[N+]1(C)C2CCC1CC(OC(=O)C(CO)c1ccccc1)C2 (stereo not drawn) (library stock concentration (final ~1000-fold dilution): 10 mM)
IRF Lucia reporter activity (RAW-Dual [1]; [4]): 1.06
IRF Lucia reporter activity (RAW-Dual [1]; agonist: LPS (TLR4) 0.1 ug/mL): 0.99

CC(C)[N+]1(C)C2CCC1CC(OC(=O)C(CO)c1ccccc1)C2 (stereo not drawn)
IRF Lucia reporter activity (RAW-Dual [2]; [5]): 0.98
